# Measurements from the supplement of paper PMC8728848.
# The list shows a part of the results.
# B1: LngA (Escherichia coli) (protein)
# chain: MLSVYNRTQKFKAEARKKIAKYHELRKQRGMSLLEVIIVLGIIGTIAAGVVILAQRAFDSRAVTDLVTNTNTVRVRMKDAYQRDGKYPDFVDPLSLTANTIKTDTSGIPAAQLVQLGKITPDEVRNNISGDFIAIGGALTSNGAQVKKGFAIELNGLSQEQCRSILGQVGNNWEYVAIGTSASGSYAMTATGVDMSVAASTTVLRSLGNNGQTTLTADKILSTCTAQVNSITLGSR
# Key:
# Assay in all cases: glycan array binding signal (z-score within array); higher = stronger binding
# Settings in all cases: glycan notation: IUPAC condensed, linker removed
# [1] = target: Gal(b1-4)GlcNAc(b1-3)Gal(b1-4)GlcNAc(b1-6)[Gal(b1-3)]GalNAc
# Procedure, shortened: (§1)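 Arrays were curated from the Consortium for Functional Glycomics database, 3228 in total, and kept only where the protein sequence was available. Binding is expressed as a within-array Z-score. This score was averaged across arrays of the same protein sequence at different concentrations or buffers and across linkers, and negative values can be read as non-binding.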
# [2] = target: Gal(b1-4)GlcNAc(b1-3)Gal(b1-4)[Fuc(a1-3)]GlcNAc(b1-3)Gal(b1-4)[Fuc(a1-3)]GlcNAc
# Procedure, shortened: as §1
# [3] = target: Gal(b1-4)GlcNAc(b1-3)GalNAc
# Procedure, shortened: as §1
# [4] = target: Gal(b1-4)GlcNAc(b1-3)[Fuc(a1-3)GlcNAc(b1-6)]Gal(b1-4)Glc
# Procedure, shortened: as §1
# [5] = target: Gal(b1-4)GlcNAc(b1-3)[Gal(b1-4)GlcNAc(b1-6)]Gal(b1-4)GlcNAc
# Procedure, shortened: as §1
# [6] = target: Gal(b1-4)GlcNAc(b1-3)[GlcNAc(b1-6)]Gal(b1-4)GlcNAc
# Procedure, shortened: as §1
# [7] = target: Gal(b1-4)GlcNAc(b1-6)Gal(b1-4)GlcNAc
# Procedure, shortened: as §1
# [8] = target: Gal(b1-4)GlcNAc(b1-6)GalNAc
# Procedure, shortened: as §1
# [9] = target: Gal(b1-4)GlcNAc(b1-6)[Gal(b1-3)]GalNAc
# Procedure, shortened: as §1
# [10] = target: Gal(b1-4)GlcNAc(b1-6)[Gal(b1-4)GlcNAc(b1-3)]GalNAc
# Procedure, shortened: as §1
# Gal(b1-4)GlcNAc6P = target: Gal(b1-4)GlcNAc6P
# Procedure, shortened: as §1
# Gal(b1-6)Gal = target: Gal(b1-6)Gal
# Procedure, shortened: as §1
# Gal3S(b1-3)GalNAc = target: Gal3S(b1-3)GalNAc
# Procedure, shortened: as §1
# Gal3S(b1-3)GlcNAc = target: Gal3S(b1-3)GlcNAc
# Procedure, shortened: as §1
# [11] = target: Gal3S(b1-3)[Fuc(a1-4)]GlcNAc
# Procedure, shortened: as §1
# Gal3S(b1-4)Glc = target: Gal3S(b1-4)Glc
# Procedure, shortened: as §1
# Gal3S(b1-4)Glc6S = target: Gal3S(b1-4)Glc6S
# Procedure, shortened: as §1
# Gal3S(b1-4)GlcNAc = target: Gal3S(b1-4)GlcNAc
# Procedure, shortened: as §1
# [12] = target: Gal3S(b1-4)[Fuc(a1-3)]Glc6S
# Procedure, shortened: as §1
# [13] = target: Gal3S(b1-4)[Fuc(a1-3)]GlcNAc
# Procedure, shortened: as §1
# [14] = target: Gal3S(b1-4)[Fuc(a1-3)]GlcNAc6S
# Procedure, shortened: as §1
# Gal3S4S(b1-4)GlcNAc = target: Gal3S4S(b1-4)GlcNAc
# Procedure, shortened: as §1
# Gal3S6S(b1-4)GlcNAc = target: Gal3S6S(b1-4)GlcNAc
# Procedure, shortened: as §1
# Gal3S6S(b1-4)GlcNAc6S = target: Gal3S6S(b1-4)GlcNAc6S
# Procedure, shortened: as §1
# Gal4S(b1-4)GlcNAc = target: Gal4S(b1-4)GlcNAc
# Procedure, shortened: as §1
# Gal4S6S(b1-4)GlcNAc = target: Gal4S6S(b1-4)GlcNAc
# Procedure, shortened: as §1
# Gal6P(b1-4)GlcNAc = target: Gal6P(b1-4)GlcNAc
# Procedure, shortened: as §1
# Gal6S(b1-3)GlcNAc = target: Gal6S(b1-3)GlcNAc
# Procedure, shortened: as §1
# Gal6S(b1-3)GlcNAc6S = target: Gal6S(b1-3)GlcNAc6S
# Procedure, shortened: as §1
# Gal6S(b1-4)Glc = target: Gal6S(b1-4)Glc
# Procedure, shortened: as §1
# Gal6S(b1-4)Glc6S = target: Gal6S(b1-4)Glc6S
# Procedure, shortened: as §1
# Gal6S(b1-4)GlcNAc = target: Gal6S(b1-4)GlcNAc
# Procedure, shortened: as §1
# Gal6S(b1-4)GlcNAc6S = target: Gal6S(b1-4)GlcNAc6S
# Procedure, shortened: as §1
# GalNAc(a1-3)Gal = target: GalNAc(a1-3)Gal
# Procedure, shortened: as §1
# GalNAc(a1-3)GalNAc = target: GalNAc(a1-3)GalNAc
# Procedure, shortened: as §1
# [15] = target: GalNAc(a1-3)GalNAc(b1-3)Gal(a1-4)Gal(b1-4)Glc
# Procedure, shortened: as §1
# [16] = target: GalNAc(a1-3)GalNAc(b1-3)Gal(a1-4)Gal(b1-4)GlcNAc
# Procedure, shortened: as §1
# GalNAc(b1-3)Gal = target: GalNAc(b1-3)Gal
# Procedure, shortened: as §1
# [17] = target: GalNAc(b1-3)Gal(a1-4)Gal(b1-4)GlcNAc
# Procedure, shortened: as §1
# [18] = target: GalNAc(b1-3)Gal(a1-4)Gal(b1-4)GlcNAc(b1-3)Gal(b1-4)Glc
# Procedure, shortened: as §1
# [19] = target: GalNAc(b1-3)Gal(a1-6)Gal(b1-4)Glc
# Procedure, shortened: as §1
# GalNAc(b1-3)GalNAc = target: GalNAc(b1-3)GalNAc
# Procedure, shortened: as §1
# GalNAc(b1-3)GlcNAc = target: GalNAc(b1-3)GlcNAc
# Procedure, shortened: as §1
# GalNAc(b1-4)Gal(b1-4)Glc = target: GalNAc(b1-4)Gal(b1-4)Glc
# Procedure, shortened: as §1
# GalNAc(b1-4)GlcNAc = target: GalNAc(b1-4)GlcNAc
# Procedure, shortened: as §1
binder,measurement,setting,value
B1,glycan array binding signal (z-score),[1],0.525
same,glycan array binding signal (z-score),[2],-0.337
same,glycan array binding signal (z-score),[3],-0.483
same,glycan array binding signal (z-score),[4],-0.534
same,glycan array binding signal (z-score),[5],-0.205
same,glycan array binding signal (z-score),[6],-0.507
same,glycan array binding signal (z-score),[7],-0.492
same,glycan array binding signal (z-score),[8],0.491
same,glycan array binding signal (z-score),[9],-0.287
same,glycan array binding signal (z-score),[10],-0.313
same,glycan array binding signal (z-score),Gal(b1-4)GlcNAc6P,4.74
same,glycan array binding signal (z-score),Gal(b1-6)Gal,0.393
same,glycan array binding signal (z-score),Gal3S(b1-3)GalNAc,0.693
same,glycan array binding signal (z-score),Gal3S(b1-3)GlcNAc,-0.1
same,glycan array binding signal (z-score),[11],-0.002
same,glycan array binding signal (z-score),Gal3S(b1-4)Glc,4.16
same,glycan array binding signal (z-score),Gal3S(b1-4)Glc6S,2.3
same,glycan array binding signal (z-score),Gal3S(b1-4)GlcNAc,0.599
same,glycan array binding signal (z-score),[12],0.739
same,glycan array binding signal (z-score),[13],-0.481
same,glycan array binding signal (z-score),[14],2.64
same,glycan array binding signal (z-score),Gal3S4S(b1-4)GlcNAc,0.144
same,glycan array binding signal (z-score),Gal3S6S(b1-4)GlcNAc,1.61
same,glycan array binding signal (z-score),Gal3S6S(b1-4)GlcNAc6S,2.24
same,glycan array binding signal (z-score),Gal4S(b1-4)GlcNAc,-0.484
same,glycan array binding signal (z-score),Gal4S6S(b1-4)GlcNAc,-0.132
same,glycan array binding signal (z-score),Gal6P(b1-4)GlcNAc,0.197
same,glycan array binding signal (z-score),Gal6S(b1-3)GlcNAc,-0.378
same,glycan array binding signal (z-score),Gal6S(b1-3)GlcNAc6S,0.619
same,glycan array binding signal (z-score),Gal6S(b1-4)Glc,0.168
same,glycan array binding signal (z-score),Gal6S(b1-4)Glc6S,1.66
same,glycan array binding signal (z-score),Gal6S(b1-4)GlcNAc,-0.359
same,glycan array binding signal (z-score),Gal6S(b1-4)GlcNAc6S,0.498
same,glycan array binding signal (z-score),GalNAc(a1-3)Gal,-0.3
same,glycan array binding signal (z-score),GalNAc(a1-3)GalNAc,-0.088
same,glycan array binding signal (z-score),[15],-0.513
same,glycan array binding signal (z-score),[16],-0.449
same,glycan array binding signal (z-score),GalNAc(b1-3)Gal,0.532
same,glycan array binding signal (z-score),[17],-0.426
same,glycan array binding signal (z-score),[18],-0.43
same,glycan array binding signal (z-score),[19],-0.488
same,glycan array binding signal (z-score),GalNAc(b1-3)GalNAc,-0.272
same,glycan array binding signal (z-score),GalNAc(b1-3)GlcNAc,-0.469
same,glycan array binding signal (z-score),GalNAc(b1-4)Gal(b1-4)Glc,0.945
same,glycan array binding signal (z-score),GalNAc(b1-4)GlcNAc,-0.331
